# Assay results taken from PubChem BioAssay AID485341 (National Center for Advancing Translational Sciences (NCATS), 2010).
# Screen size: about 330,000 compounds; about 1,700 (0.52%) were called active. The shares of active, inactive and inconclusive entries below differ from those in the screen. Calls follow the shape of the dose curve; as a rule, active = well fitted inhibition curve with a large enough effect; inconclusive = small, poorly fitted or top-dose-only effect; inactive = no such curve, though single readings can be large or run the other way. Where the call is inconclusive, the potency comes from a doubtful curve fit.
# Target: Beta-lactamase (Escherichia coli (strain K12)) (UniProt P00811)
# Assay: qHTS Inhibitors of AmpC Beta-Lactamase (assay without detergent); also: nearly all actives have a fitted effect of over 20% in size
# Settings: AmpC nitrocefin hydrolysis, absorbance 480 nm, 0.0001% Triton; series mostly up to 57.1 µM
# Protocol: NIH Molecular Libraries Probe Production Network [MLPCN] NIH Chemical Genomics Center [NCGC] Assay Provider: Professor Brian Shoichet, UCSF Assay Overview: This aggregation profiling approach exploits the sensitivity of aggregate formation to detergent. Inhibition of b-lactamase is measured in the presence and absence of 0.01% Triton X-100. This particular assay had the prescence of 0.01% Triton X-100. See Pubchem assay "Promiscuous and Specific Inhibitors of AmpC Beta-Lactamase (assay without detergent)" for related screen. Compounds that inhibit only in the absence of detergent are considered likely promiscuous aggregators. A screen of 1,030 compounds was performed in Brian Shoichet's lab in 96-well format. AmpC activity was measured by following the absorbance at 480 nm. Nitrocefin is a chromogenic substrate: while nitrocefin is yellow (lmax 390 nm), the product of its hydrolysis is red (lmax 486 nm, 17,000 M-1). AmpC beta lactamase was provided by Shoichet Lab, UCSF.
# Buffer: 20 mM phosphate buffer, pH 7.0 Triton X-100: No Detergent screen: 0.0001%, Detergent screen: 0.01%. Reagents/Controls: Buffer in columns 3 and 4 as negative control (no enzyme). 5.3 nM AmpC in columns 1, 2, 5-48. Titration of UCSF compound 9 control (from 10 mM, then 1:2) pin-transferred to column 2. Column 1 is neutral (100% activity). Assay Steps: Six uL of reagents were dispensed to 1536-well Greiner black clear bottom plates. Compounds and controls (23 nL) were transferred via Kalypsys PinTool. The plates were incubated for 15 min at room temperature, and then 2 uL of 800 uM solution of nitrocefin was added to start the reaction. The plates were immediately transferred to and read every 20 seconds for 4 min on ViewLux (Perkin-Elmer) High-throughput CCD imager using 480 nm absorbance protocol. During dispense, reagent bottles were kept submerged into 4 deg C water bath. Keywords: NIH Roadmap, MLSCN, MLI, MLSMR, qHTS, NCGC, AmpC Beta-Lactamase, Aggregation
# Potency is read from the fitted curve at half-maximal effect; tags tell the direction and shape of the fitted curve.
# Sequence of UniProt P00811 (P00811 whole entry, looked up): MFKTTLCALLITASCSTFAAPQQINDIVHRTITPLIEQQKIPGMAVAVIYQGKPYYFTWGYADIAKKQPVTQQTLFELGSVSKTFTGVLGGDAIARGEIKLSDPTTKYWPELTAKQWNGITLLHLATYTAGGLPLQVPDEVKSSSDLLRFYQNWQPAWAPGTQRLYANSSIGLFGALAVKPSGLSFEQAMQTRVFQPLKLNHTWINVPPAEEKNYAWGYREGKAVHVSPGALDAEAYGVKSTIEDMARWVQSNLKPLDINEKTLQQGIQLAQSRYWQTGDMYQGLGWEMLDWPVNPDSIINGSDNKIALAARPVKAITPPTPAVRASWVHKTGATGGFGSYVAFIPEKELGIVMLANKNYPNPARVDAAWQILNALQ
row,Structure (SMILES),Potency
1,Cc1ccc(SCC(=O)Nc2nnc(-c3ccco3)o2)cc1,"inconclusive: 25.1 µM [inhibitor, single point]"
2,Cc1ccc(C(=O)O/N=C/c2c(N3CCOCC3)n(C)c3ccccc23)cc1,inactive
3,O=C(CSc1nc2ccccc2o1)N/N=C/c1ccc(O)c(O)c1,inactive
4,COc1ccc(/C=N/OCC(=O)NC(c2ccccc2)c2ccccc2)c(OC)c1,inactive
5,Cc1ccc(C(=O)NCC(=O)OCc2c(F)cccc2Cl)cc1,"inconclusive: 39.8 µM [inhibitor, single point]"
6,CCCCOc1ccc(-c2nnn(CCC(=O)N3CCOCC3)n2)cc1,inactive
7,COc1ccccc1CN1CC(C(=O)NCCCc2ccc(F)cc2)CCC1=O (centres undefined),inactive
8,COC(=O)CSc1nc2sc3c(c2c(=O)n1C1CCCCC1)CCN(C)C3,inactive
9,O=C(CSc1nc2ccccc2c(=O)n1-c1ccc(F)cc1F)c1c[nH]c2ccccc12,"inconclusive: 2.82 µM [inhibitor, full curve, poor fit]"
10,Cc1ccc(C(=O)CSc2nnc(-c3ccco3)n2CC2CCCO2)cc1 (centres undefined),"inconclusive: 6.31 µM [inhibitor, single point]"
11,CCN1CCN(c2ccc(S(=O)(=O)N3CCCCC3)cc2NC(=O)c2ccc([N+](=O)[O-])o2)CC1,"inconclusive: 39.8 µM [inhibitor, single point]"
12,CCOC(=O)C1=C(O)/C(=C\c2ccc(CNS(=O)(=O)c3ccc(Br)cc3)o2)N=C1C,"inconclusive: 1.58 µM [inhibitor, partial curve]"
13,COc1ccccc1-n1c(CNc2ccc(F)cc2)nnc1SCC(=O)Nc1cc(C)on1,inactive
14,COC(=O)c1cn(NC(=O)c2ccc([N+](=O)[O-])c(C)c2)c(=O)c2ccccc12,"inconclusive: 8.91 µM [inhibitor, full curve, poor fit]"
15,CCOC(=O)C1CCN(C(=O)NC23CC4CC(CC(C4)C2)C3)CC1,"inconclusive: 5.62 µM [inhibitor, single point]"
16,COCCOc1cc(NC(=O)c2sccc2Oc2ccc([N+](=O)[O-])cc2F)c(Cl)cc1Cl,"inconclusive: 1.12 µM [inhibitor, partial curve, poor fit]"
17,CCNC(=S)N1CCN(C(c2ccccc2)c2ccccc2)CC1,"inconclusive: 6.31 µM [inhibitor, single point]"
18,COc1cccc(/C=N/NC(=O)c2[nH]nc3c2CCc2ccccc2-3)c1O,active: 5.62 µM
19,Cc1ccc(Nc2nc(-c3sc(NC(=O)c4ccc([N+](=O)[O-])cc4)nc3C)cs2)cc1,"inconclusive: 5.62 µM [inhibitor, partial curve]"
20,COc1ccccc1N=Nc1[nH]c2ccc(C)cc2c1O,inactive
21,CCOc1ccc(C(=O)Nc2cc(-c3nc4ccccc4[nH]3)ccc2Cl)cc1[N+](=O)[O-],"inconclusive: 1.78 µM [inhibitor, full curve, poor fit]"
22,Cc1ccccc1C1=NCC(=O)N(CC(=O)N2CCCCC2)c2sc(C)c(C)c21,"inconclusive: 5.62 µM [inhibitor, partial curve, poor fit]"
23,CC1CCN(Cc2cnc(Cl)s2)CC1,"inconclusive: 7.08 µM [inhibitor, single point]"

row,Structure (SMILES),Potency
1,Cc1ccc(/C=N\NC(=O)C2CN(S(=O)(=O)c3ccccc3)CCN2S(=O)(=O)c2ccccc2)cc1 (centres undefined),"inconclusive: 3.16 µM [inhibitor, single point]"
2,CS(=O)(=O)c1ccc2nc(NC(=O)c3cc([N+](=O)[O-])cc([N+](=O)[O-])c3)sc2c1,inactive
3,COc1ccc(S(=O)(=O)Cc2ccc(C(=O)N3CCN(c4ccccc4)CC3)o2)cc1,"inconclusive: 11.2 µM [inhibitor, partial curve, poor fit]"
4,O=C(Nc1cc(S(=O)(=O)Nc2ccc(Cl)cc2)ccc1O)c1ccc(S(=O)(=O)N2CCCCCC2)cc1,"inconclusive: 2.51 µM [inhibitor, partial curve, poor fit]"
5,Cc1ccc(-c2cc(C(=O)NCc3ccccn3)c3ccccc3n2)cc1C,"inconclusive: 2.51 µM [inhibitor, partial curve, poor fit]"
6,O=C(Nc1cccc(O)c1)c1cc(-c2ccco2)on1,"inconclusive: 3.16 µM [inhibitor, single point]"
7,O=C(Nc1ccc(O)cc1)c1ccc(NC(=O)C2CCCO2)cc1 (centres undefined),inactive
8,COc1cc(NC(=O)c2ccccc2[N+](=O)[O-])ccc1NC(=O)C(C)C,inactive
9,COc1ccccc1CNC(=O)C1CCC(CNc2c(N3CCOCC3)c(=O)c2=O)CC1 (centres undefined),"inconclusive: 11.2 µM [inhibitor, full curve, poor fit]"
10,CCn1c(CS(=O)Cc2ccc(Cl)cc2Cl)nnc1SCc1c(Cl)cccc1Cl (centres undefined),"inconclusive: 5.62 µM [inhibitor, single point]"
11,Cc1c(C)n2c(SCC(=O)NC3CCCCC3)nnc2[nH]c1=O,"inconclusive: 39.8 µM [inhibitor, single point]"
12,C=CCn1c(CSc2ccccc2[N+](=O)[O-])n[nH]c1=S,"inconclusive: 31.6 µM [inhibitor, single point]"
13,CC(C)(Sc1cc(C(C)(C)C)c(O)c(C(C)(C)C)c1)Sc1cc(C(C)(C)C)c(O)c(C(C)(C)C)c1,"inconclusive: 2.51 µM [inhibitor, partial curve]"
14,CCCN(CC(=O)Nc1ccc(F)c(F)c1F)C(=O)Cn1c(=O)cnc2ccccc21,inactive
15,CCOc1ccc2nc(N3CCC(C(=O)N4CCN(c5ccccn5)CC4)CC3)sc2c1,"inconclusive: 5.62 µM [inhibitor, full curve, poor fit]"
16,CC1CCCCC1NC(=O)COC(=O)/C=C/c1ccco1 (centres undefined),inactive
17,Cc1cccc2sc(NC(=O)CSCc3ccccc3)nc12,"inconclusive: 3.16 µM [inhibitor, full curve, poor fit]"
18,CNC(=O)c1ccsc1NC(=O)c1ccc(S(=O)(=O)N2CCc3ccccc32)cc1,"inconclusive: 3.55 µM [inhibitor, full curve, poor fit]"
19,COc1ccc(S(=O)(=O)CC(=O)c2cc3cc(Br)ccc3oc2=O)cc1,active: 28.2 µM
20,COc1ccc(-c2onc3ccc(Cl)cc23)cc1,inactive
21,Cc1cc(C)cc(OCc2nnc(SCC(=O)c3ccccc3)o2)c1,"inconclusive: 6.31 µM [inhibitor, single point]"
22,O=C(Nc1ccc2c(c1)COC2=O)c1ccc(Cl)c(Cl)c1,inactive
23,NS(=O)(=O)c1ccc(CCNC(=O)c2cc3ccccc3s2)cc1,"inconclusive: 12.6 µM [inhibitor, single point]"

row,Structure (SMILES),Potency
1,Nn1c(COc2ccccc2F)nnc1SCC(=O)NC1CCCCC1,"inconclusive: 39.8 µM [inhibitor, single point]"
2,O=C(N/N=C/c1ccc([N+](=O)[O-])cc1)c1ccc(NS(=O)(=O)c2cccs2)cc1,inactive
3,O=C(N/N=C/c1cccc(O)c1)c1cc(-c2ccc3c(c2)OCO3)n[nH]1,"inconclusive: 11.2 µM [inhibitor, partial curve]"
4,CCN(CC)S(=O)(=O)c1cccc(-c2cn3cccnc3n2)c1,inactive
5,COc1ccccc1C(=O)Nc1nnc(SCC(=O)Nc2ccc3c(c2)oc2ccccc23)s1,"inconclusive: 7.08 µM [inhibitor, partial curve]"
6,CCOC(=O)CCNc1n[nH]c(=O)[nH]c1=O,inactive
7,O=C(NNC(=O)c1sccc1-n1cccc1)c1ccc(Cl)cc1,"inconclusive: 6.31 µM [inhibitor, single point]"
8,C=CCN(CC=C)S(=O)(=O)c1ccc(NC(=S)NC(=O)/C=C/c2cccc3ccccc23)cc1,"inconclusive: 3.55 µM [inhibitor, full curve, poor fit]"
9,O=C(Cn1nc(Cc2cccnc2)c2ccccc2c1=O)Nc1ccc2c(c1)OCO2,active: 10 µM
10,Nc1c2c(nc3sc4c(c13)CCCC4)-c1ccccc1CC2,inactive
11,O=C(Nc1ccccc1Cl)NC1(C(=O)N2CCC(O)CC2)CCCCC1,inactive
12,CCCCn1c(NC(=S)Nc2ccccc2)nc2ccccc21,"inconclusive: 14.1 µM [inhibitor, partial curve]"
13,CCC(C)/C(C)=N/NC(=O)c1ccc(CSc2nc3ccccc3s2)cc1 (centres undefined),"inconclusive: 31.6 µM [inhibitor, single point]"
14,COc1ccc(OC)c2sc(N(CCN(C)C)C(=O)/C=C/c3cccs3)nc12,inactive
15,Cc1ccc(/C=N/NC(=O)Cn2cnc3c2c(=O)n(C)c(=O)n3C)s1,inactive
16,O=C(CSc1nnc(SCc2ccc(Cl)cc2)s1)N/N=C/c1ccc(Cl)cc1Cl,inactive
17,Cc1cc(C(=O)OCC(=O)NCc2cccs2)ccc1[N+](=O)[O-],inactive
18,Cc1cc(=O)[nH]c(SCC(=O)Nc2ccc(C)c(S(=O)(=O)N3CCCCC3)c2)n1,"inconclusive: 28.2 µM [inhibitor, single point]"
19,CCOC(=O)c1sc(=S)n(-c2ccccc2)c1N(C(C)=O)C(C)=O,inactive
20,CC(=O)c1ccc(OCC(=O)N(CCC2=CCCCC2)c2c(N)n(Cc3ccccc3)c(=O)[nH]c2=O)cc1,"inconclusive: 39.8 µM [inhibitor, single point]"
21,O=C(NCc1ccccc1Cl)c1ccc2c(=O)n(CC3CCCO3)c(=S)[nH]c2c1 (centres undefined),"inconclusive: 39.8 µM [inhibitor, single point]"
22,O=C1NC(=O)N(c2cccc(Cl)c2)C(=O)/C1=C\c1ccc(Sc2nc3ccccc3[nH]2)o1,active: 22.4 µM
23,Nc1ccc(-c2cc(-c3cccc(N)c3)nc(-c3ccccc3)n2)cc1,"inconclusive: 39.8 µM [inhibitor, single point]"
